Results taken from the supplement of paper PMC10126150.
Values marked as one replicate rest on one cluster of the flow cell; about a third of the high ones do not repeat.

System: ATP
Assay: switch fluorescence ratio, 500 uM ATP over buffer (Cy3 cluster intensity, sum of 5 cycles each) (fold (ratio)); higher = stronger signal-on switching upon ATP binding; sequences stand for … in TCGTCGGCAGCGTCAGATGTGTATAAGAGACAGTTTTTTTTTTTTTTTTTTTTTTTTT…TC
Conditions: aptamer strand: ATP DNA aptamer (quencher-CACCTGGGGGAGTATTGCGGAGGAAGG + anchor), 100 nM annealed; ATP concentration: 500 uM; one replicate
How it was run: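 Switching-strand clusters labelled with Cy3 on a modified Illumina MiSeq flow-cell were annealed to 100 nM quencher-labelled ATP aptamer, imaged in selection buffer, and re-imaged after 15 min with 500 uM ATP at 22 °C. This was done over five cycles with NaOH stripping and re-annealing in between. The fluorescence ratio is summed target-cycle over summed buffer-cycle Cy3 intensity per cluster, averaged per switch-domain sequence, excluding clusters outside 100-1000 RFU.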
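Also: ATP exposure 15 min at 22 °C before imaging.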

| Sequence | switch fluorescence ratio |
| --- | --- |
| CTCCTCTAAG | 1.14 |
| CTCCTCTAT | 1.38 |
| CTCCTGGGTG | 5.46 |
| CTCCTTGGAC | 1.47 |
| CTCCTTTGTT | 1.65 |
| CTCGACCTTC | 1.79 |
| CTCGAGTAAC | 1.08 |
| CTCGAGTAAT | 1.09 |
| CTCGATCCGC | 1.51 |
| CTCGCCACTA | 1.07 |
| CTCGCGTTAT | 1.25 |
| CTCGCTTGAC | 1.83 |
| CTCGGAACTG | 1.02 |
| CTCGGAGTGG | 1.04 |
| CTCGGATACC | 1.14 |
| CTCGGCACAG | 1.51 |
| CTCGGGATT | 1.78 |
| CTCGGGCATC | 1.41 |
| CTCGGTTCGA | 0.977 |
| CTCGTGTCTG | 1 |
| CTCGTTTACA | 1.01 |
| CTCTAACAAG | 1 |
| CTCTAATGAC | 1.36 |
| CTCTACCTGT | 1 |
| CTCTAGATCT | 1.14 |
| CTCTATCGGT | 1 |

| Sequence | switch fluorescence ratio |
| --- | --- |
| CTCTCAACGT | 0.999 |
| CTCTCAGTTG | 1.08 |
| CTCTCGCAG | 2.16 |
| CTCTGAGTA | 1.04 |
| CTCTGCCCAT | 1.37 |
| CTCTGCTGT | 1.46 |
| CTCTGGAAGG | 1.15 |
| CTCTGGATCG | 0.985 |
| CTCTGGTTGG | 1.03 |
| CTCTGTGTAT | 1.13 |
| CTCTTAGTC | 1.02 |
| CTCTTCTGCA | 1.06 |
| CTCTTGAGTG | 0.986 |
| CTCTTTAAGC | 1.02 |
| CTGAAAAGAG | 1.03 |
| CTGAAAAGTG | 0.976 |
| CTGAAAGAGA | 0.983 |
| CTGAAAGAGG | 0.976 |
| CTGAACCCGT | 0.991 |
| CTGAAGCCTC | 3.24 |
| CTGAATAATA | 0.981 |
| CTGAATGCA | 1.15 |
| CTGACAACGT | 1.04 |
| CTGACCCCTT | 1.03 |
| CTGACGCGTC | 1.17 |
| CTGAGAGCAT | 1.61 |

| Sequence | switch fluorescence ratio |
| --- | --- |
| CTGAGAGGGG | 0.97 |
| CTGAGATAT | 1 |
| CTGAGCAGC | 0.994 |
| CTGAGCGCTG | 1.05 |
| CTGAGGAGT | 0.998 |
| CTGAGGTAA | 1.68 |
| CTGAGTTCCT | 1.03 |
| CTGATAGGGT | 0.976 |
| CTGATGAAGT | 0.976 |
| CTGATGAGA | 0.997 |
| CTGATGCATA | 1.51 |
| CTGATGGAAG | 1.01 |
| CTGATGGACG | 1.02 |
| CTGATGGTAT | 1.03 |
| CTGATTCTAA | 0.968 |
| CTGATTGACT | 1.01 |
| CTGATTGTGC | 0.99 |
| CTGCAGCTGG | 1.58 |
| CTGCAGTCTC | 1.61 |
| CTGCAGTGCT | 1.99 |
| CTGCCAAGAG | 1.12 |
| CTGCCACCAA | 1.16 |
| CTGCCCGGTC | 1.02 |
| CTGCCTCTAT | 1.03 |
| CTGCGAACCA | 0.984 |
| CTGCGATCCA | 1.02 |

| Sequence | switch fluorescence ratio |
| --- | --- |
| CTGCGCATGA | 1.91 |
| CTGCGCTTGC | 1.45 |
| CTGCGGTCCA | 1.03 |
| CTGCGGTTGT | 1 |
| CTGCTAACGA | 1.26 |
| CTGCTCCGGG | 1.5 |
| CTGCTTGAGT | 1.01 |
| CTGCTTGCG | 0.993 |
| CTGGAACTC | 0.971 |
| CTGGAATCTG | 0.963 |
| CTGGAATTAA | 1.01 |
| CTGGACACAA | 1.33 |
| CTGGAGATTG | 1.02 |
| CTGGAGGTAA | 1.16 |
| CTGGATCCT | 1.02 |
| CTGGATGGGG | 1.08 |
| CTGGATTTAG | 1.05 |
| CTGGATTTTT | 1.04 |
| CTGGCAGGAG | 1.07 |
| CTGGCCCGGA | 0.975 |
| CTGGCCTTAC | 2.87 |
| CTGGCGAATC | 1.21 |
| CTGGCGGGTC | 0.969 |
| CTGGGAAATC | 0.978 |
| CTGGGATAGT | 1.01 |
| CTGGGATCGT | 0.964 |

| Sequence | switch fluorescence ratio |
| --- | --- |
| CTGGGCACGG | 0.996 |
| CTGGGCAGTC | 1.32 |
| CTGGGCGCTA | 1.01 |
| CTGGGGATC | 1.06 |
| CTGGGGCTAT | 1.06 |
| CTGGGGGACA | 0.978 |
| CTGGGTGCGG | 0.985 |
| CTGGGTGTTA | 1.03 |
| CTGGGTTAA | 0.976 |
| CTGGGTTTA | 1.06 |
| CTGGTACGTT | 0.98 |
| CTGGTAGCCT | 1.04 |
| CTGGTCTCTA | 0.991 |
| CTGGTGAACA | 1 |
| CTGGTGATAA | 1 |
| CTGGTTG | 0.989 |
| CTGGTTGGAT | 0.948 |
| CTGGTTGGTA | 0.967 |
| CTGGTTTCGT | 0.961 |
| CTGTAACCGA | 1.15 |
| CTGTAACGAC | 1.16 |
| CTGTAATTTC | 1.12 |
| CTGTAGCTCA | 2.67 |
| CTGTATAAGA | 0.969 |
| CTGTATTTTG | 1.06 |
| CTGTCACGCC | 0.99 |

| Sequence | switch fluorescence ratio |
| --- | --- |
| CTGTCACTTC | 1.01 |
| CTGTCAGCGC | 1.04 |
| CTGTCAGGTA | 0.982 |
| CTGTCCAATT | 1.03 |
| CTGTCCCTGG | 1.28 |
| CTGTCCGGGG | 0.989 |
| CTGTCGGGGG | 0.995 |
| CTGTCTGTTG | 0.956 |
| CTGTCTTGGC | 0.949 |
| CTGTGAACGA | 1.02 |
| CTGTGAATCC | 1.05 |
| CTGTGATCA | 1.09 |
| CTGTGGAGTT | 1.02 |
| CTGTGGAT | 1.09 |
| CTGTGGGGG | 0.977 |
| CTGTGGTGAG | 0.979 |
| CTGTGTCATC | 1.01 |
| CTGTGTGCTA | 1.03 |
| CTGTGTTTTA | 1.02 |
| CTGTTATAAT | 0.97 |
| CTGTTGTGGC | 0.949 |
| CTGTTTCAAT | 0.984 |
| CTGTTTTATA | 0.943 |
| CTGTTTTCGC | 0.974 |
| CTTAAAACTC | 1.13 |
| CTTAAACGAT | 1.04 |

| Sequence | switch fluorescence ratio |
| --- | --- |
| CTTAAACGTG | 1.04 |
| CTTAAATAGA | 0.958 |
| CTTAAATGTG | 1.02 |
| CTTAAGATTG | 0.954 |
| CTTAAGCCAG | 1 |
| CTTAAGCGGG | 0.903 |
| CTTAAGGTTA | 1.09 |
| CTTACAGTCA | 1.01 |
| CTTACCTGTG | 0.959 |
| CTTACGGGTG | 1.03 |
| CTTACTTT | 1.03 |
| CTTAGAACAG | 0.989 |
| CTTAGAGATC | 0.975 |
| CTTAGAGGGA | 1.04 |
| CTTAGCACAT | 1.26 |
| CTTAGCATGG | 1.07 |
| CTTAGCCTCG | 1.01 |
| CTTAGCGTGT | 1.01 |
| CTTAGCTTT | 3.78 |
| CTTAGGTGCC | 1.02 |
| CTTATACTAG | 1.05 |
| CTTATATTCG | 0.943 |
| CTTATTAGTT | 0.951 |
| CTTATTCGGT | 0.959 |
| CTTATTTTAT | 0.984 |
| CTTCAAAGA | 1.01 |

| Sequence | switch fluorescence ratio |
| --- | --- |
| CTTCAAGACA | 1.03 |
| CTTCATGCAA | 5.26 |
| CTTCATGTCT | 1 |
| CTTCATTGTA | 1 |
| CTTCCGGAGT | 5.63 |
| CTTCGAATAG | 2.33 |
| CTTCGACCGT | 0.999 |
| CTTCGATCGG | 1 |
| CTTCGCTCAT | 1.93 |
| CTTCGCTTAA | 2.84 |
| CTTCGGAGCA | 3.94 |
| CTTCGGATGC | 1.36 |
| CTTCTGGCTA | 1.07 |
| CTTCTTAAGC | 1.08 |
| CTTCTTATTT | 1.01 |
| CTTGAAAGA | 1 |
| CTTGAACCAT | 0.987 |
| CTTGACTAAA | 1.01 |
| CTTGAGAAAT | 1.06 |
